According to PubChem BioAssay AID488969 (Vanderbilt High Throughput Screening Facility, 2010):
Over roughly 110,000 compounds, “z-score” has its median near -0.1; the highest 2% begin near 2. The list shows a part of the results. The source made the active and inactive calls.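 How the source made its calls: active means z-score in the third read window above 3 or below -3; inactive means the rest.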

molecular target: Metabotropic glutamate receptor 8 (Rattus norvegicus) (UniProt P70579); assay: mGluR8 Gi/Go-coupled signaling modulation – cell-based, rat, thallium flux, HTS, primary screen (AID 488969); conditions: HEK293 rat mGluR8, GIRK (G protein-gated inwardly rectifying potassium channel) thallium flux, FluoZin2; at 10 µM; stronger effect = higher value; submaximal glutamate (EC20) added with thallium
UniProt P70579, sequence (P70579 whole entry, looked up): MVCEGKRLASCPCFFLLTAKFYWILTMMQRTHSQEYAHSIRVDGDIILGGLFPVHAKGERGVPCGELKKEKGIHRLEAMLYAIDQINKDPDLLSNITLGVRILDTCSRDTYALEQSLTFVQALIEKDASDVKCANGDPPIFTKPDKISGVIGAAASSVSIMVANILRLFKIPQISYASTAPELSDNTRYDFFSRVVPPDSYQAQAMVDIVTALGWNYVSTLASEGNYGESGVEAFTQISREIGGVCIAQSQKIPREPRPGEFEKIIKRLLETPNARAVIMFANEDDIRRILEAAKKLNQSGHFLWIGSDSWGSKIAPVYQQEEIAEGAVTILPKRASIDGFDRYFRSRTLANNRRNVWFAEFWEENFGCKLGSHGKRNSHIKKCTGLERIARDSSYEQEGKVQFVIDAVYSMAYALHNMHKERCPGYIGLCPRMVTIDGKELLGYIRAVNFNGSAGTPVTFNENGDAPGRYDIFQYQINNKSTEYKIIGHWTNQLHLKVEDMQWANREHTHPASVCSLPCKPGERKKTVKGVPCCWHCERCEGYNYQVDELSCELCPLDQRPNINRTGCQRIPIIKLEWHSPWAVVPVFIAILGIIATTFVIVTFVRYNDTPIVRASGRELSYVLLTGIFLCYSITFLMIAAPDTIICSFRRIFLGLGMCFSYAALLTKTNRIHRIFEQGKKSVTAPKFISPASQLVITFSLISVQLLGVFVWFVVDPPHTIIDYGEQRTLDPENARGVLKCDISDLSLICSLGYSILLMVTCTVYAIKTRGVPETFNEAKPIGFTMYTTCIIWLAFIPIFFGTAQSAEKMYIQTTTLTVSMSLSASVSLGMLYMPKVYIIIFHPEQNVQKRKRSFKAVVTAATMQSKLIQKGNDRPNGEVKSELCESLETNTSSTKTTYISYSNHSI

Structure (SMILES)	z-score
CCOC(=O)c1ccc(NC(=O)Nc2ccc(S(N)(=O)=O)cc2)cc1	0.256
COc1c(S(=O)(=O)N2CCCC2)ccc(Cl)c1Cl	-0.291
COc1cc(NC(=O)CS(=O)(=O)c2ccc(C)cc2)cc(OC)c1OC	active: 3.72
Cc1ccc(C(C)C)c(OCC(=O)NNC(=O)C(C(C)C)N2C(=O)c3ccccc3C2=O)c1 (stereo not drawn)	0.359
O=C(O)C1CC=CCC1C(=O)Nc1ccc2c(c1)OCCO2 (stereo not drawn)	0.0553
CN(C(=O)c1ccc(-c2nn(C)c(=O)c3ccccc23)cc1)c1ccccc1	-1.01
CNc1oc(Cc2ccccc2)nc1S(=O)(=O)c1ccccc1	-0.133
CC(C(=O)c1ccc(Br)cc1)[n+]1cccc(NC(=O)c2ccccc2)c1 (stereo not drawn)	0.0307
COc1ccc(CNc2nc3nc4c(c(=O)n3[nH]2)CCC4)cc1	-0.0479
O=C(CSc1nncn1-c1ccccc1)Nc1ccc(N2CCOCC2)cc1	-0.098
COc1cccc(NC(=O)Cn2c(=O)c3c(ncn3Cc3ccccc3)n(Cc3ccccc3)c2=O)c1	-0.215
COc1ccc(S(=O)(=O)NCC(c2cccnc2)N2CCN(c3ccc(F)cc3)CC2)cc1C (stereo not drawn)	-0.32
Cc1ccc(SCCc2ccc(C)nc2)cc1	-0.479
CCCn1c(C)cc(/C=C(\C#N)C(=O)O)c1C	-0.201
Cc1ccc(-c2cn3cc([N+](=O)[O-])ccc3n2)cc1	-0.329
CC1(C)N=C(N)N=C(N)N1c1cccc(C(=O)O)c1	-0.141
CCCOC(=O)C1=C(C)NC2=C(C(=O)C(C(=O)OC)C(C)C2)C1c1ccc(N(CC)CC)cc1 (stereo not drawn)	0.971
CCOc1ccc(C(=O)OCCN(CC)CC)cc1	0.374
O=C1CN(C(=O)COC(=O)c2cccc(OCc3ccccc3)c2)c2ccccc2N1	0.176
COC(=O)c1cc(C(=O)OC)cc(S(=O)(=O)Nc2ccc(Cl)c(N)c2)c1	0.237
CC1CCCN(Cc2cccc(Oc3ccccc3)c2)C1 (stereo not drawn)	active: 6.29
CCOc1ccc(CCN2C(=O)C3C4C=CC(C4)C3C2=O)cc1OCC (stereo not drawn)	-0.444

Structure (SMILES)	z-score
O=C(c1ccc(S(=O)(=O)N2CCOCC2)cc1)N(Cc1ccco1)Cc1cccs1	0.686
CN(C)c1ccc(C2SCCN2C(=O)c2ccc([N+](=O)[O-])cc2)cc1 (stereo not drawn)	0.113
CCCCOC(=O)C1Cc2ccccc2C(=O)O1 (stereo not drawn)	-0.249
COc1ccccc1NC(=O)N1CCCC(c2nc3c(nnn3Cc3ccc(C)cc3)c(=O)[nH]2)C1 (stereo not drawn)	-0.291
CC1=C(C(=O)OC(C)C)C(c2cccc(F)c2)n2ncnc2N1 (stereo not drawn)	-1.89
CCOC(=O)c1c(NC(=O)/C=C/c2ccc(C)o2)sc(C)c1C	-0.165
Cn1cc(C(=O)c2ccc(Cl)cc2)cc1-c1nc2ccccc2n1C	0.0685
COc1ccccc1OCc1ccc(C(=O)N2CCN(C)CC2)o1	-0.219
COc1cccc(CNC(=O)C2(C)Oc3ccccc3NC2=O)c1 (stereo not drawn)	-0.3
NC(=O)c1cc(-c2ccccc2)nc(Oc2ccccc2)n1	-0.386
Cn1c(=O)[nH]c(=O)c2c1nc(NC1CCCCC1)n2Cc1ccccc1	0.331
Cc1ccc(-c2csc3ncnc(Oc4cccc5ccc(C)nc45)c23)cc1	-0.213
CN(C)CCSc1nc(-c2ccccc2)nc2c1CCC2	-0.0489
CCN(CC)CCOC(=O)C1c2ccccc2Oc2ccccc21	-0.0952
Cc1ccc(C(=O)NCCN2CCOCC2)cc1Cl	-0.395
CC(C)Sc1nnc2n(CCc3ccccc3)c(=O)c3c4c(sc3n12)COC(C)(C)C4	-0.427
COc1ccc(C(=O)O/N=C/c2ccc(S(=O)c3ccc(Cl)cc3)nc2)cc1 (stereo not drawn)	-0.37
O=S(=O)(c1ccccc1)N1CCC(O)(CSc2ccc(Cl)cc2)CC1	-0.106
COC(=O)c1ccccc1NC(=O)CN(c1cc(OC)ccc1OC)S(C)(=O)=O	0.00471
CCn1c(SCC(=O)Nc2cc3oc4ccccc4c3cc2OC)nnc1-c1cccs1	-0.181
CCOc1ccc(S(=O)(=O)NCCC(=O)NCc2ccco2)cc1	-0.667
Cc1ccc(SCc2[nH]nc3c2C2(CCSCC2)C(C#N)=C(N)O3)cc1	-0.136

Structure (SMILES)	z-score
Cc1nnc(N(Cc2ccccc2)C(=O)c2cnccn2)s1	0.0216
Cc1cc(=O)n(CCCO)c(O)c1C#N	-0.271
CCCC[n+]1c(-c2ccc(Cl)cc2Cl)csc1Nc1ccccc1	0.203
CC1=C(C(=O)OCC2CCCO2)C(c2ccncc2)C2=C(CC(C)(C)CC2=O)N1 (stereo not drawn)	0.671
Cc1ccc(NC(=O)c2ccccc2)cc1	0.0142
CCOC(=O)CC(NC(=O)Cc1ccc(F)cc1)c1ccccc1Cl (stereo not drawn)	-0.193
CCCCCCC1NC(C(=O)O)CS1 (stereo not drawn)	-0.607
CCCCN(Cc1ccccc1)C(=O)C1CCCN(S(=O)(=O)c2cnc[nH]2)C1 (stereo not drawn)	-0.245
O=C(CSc1ncnc2sc3c(c12)CCCC3)N1CCC(c2noc3ccc(F)cc23)CC1	0.658
CCCCc1ccc(-c2csc(/C(C#N)=C\c3ccc(C)o3)n2)cc1	-0.34
CN1CCN(c2ccccc2NC(=O)c2ccc(Br)o2)CC1	0.236
COCCCNC(=O)CCc1nc(-c2ccccc2Cl)no1	0.26
Cn1nnnc1SCC(=O)Nc1cc(C(=O)O)cc(C(=O)O)c1	-0.359
O=C(O)CN1C(=O)SC(Nc2ccc(Cl)cc2)C1=O (stereo not drawn)	-0.104
O=C(COc1ccccc1)NCc1cccs1	-0.279
C/C(=N\n1nnnc1Nc1ccccc1)c1ccc(N)cc1	-0.254
O=C(CN(Cc1ccccc1)S(=O)(=O)c1ccc2c(c1)OCCO2)N/N=C/c1cccc(Br)c1	0.0191
O=[N+]([O-])c1cc(S(=O)(=O)Nc2ccccc2)ccc1-n1nnc2ccccc21	-1.02
O=C(Cc1ccc(Cl)cc1)Nc1ccc(NC(=O)c2ccccc2)cc1	-0.308
CC1(C)CC(=O)c2cc(OCC(=O)N3CCCCCC3)ccc2O1	-0.462
CCOC(=O)N1CCN(C(=O)/C(=C/c2ccc(OC)cc2)NC(=O)c2ccccc2)CC1	-0.264
Cc1ccc(-c2nnc(SCC(=O)NNC(=O)COc3ccccc3C)n2C)cc1	-0.319

Structure (SMILES)	z-score
CN(C)c1cccc(NC(=O)Cc2ccc(F)cc2)c1	0.139
O=c1[nH]c2cccnc2n1Cc1ccccc1	-0.166
Cc1ccc(C)c(NC(=O)C2Cc3ccccc3CN2C(=O)OCc2ccccc2)c1 (stereo not drawn)	-0.537
CCOC(=O)C(Cc1ccc(NC(=O)/C(=C/c2ccccc2)NC(=O)c2ccccc2)cc1)N1C(=O)c2ccccc2C1=O (stereo not drawn)	-0.253
O=C(Nc1nc(-c2ccccc2)cs1)C1CCCCN1S(=O)(=O)c1ccc(Cl)cc1 (stereo not drawn)	-0.237
CCSc1nc2nn(-c3ccccc3)c(=O)c-2c2n1CCCCC2	-0.536
CCn1c2ccccc2c2cc(NC(=O)CSc3nnc(-c4ccccc4)o3)ccc21	0.0695
O=C(CCSc1nnc(-c2ccncc2)o1)Nc1ccccc1	-0.072
CCn1c(=O)c(C(=O)NCc2ccccn2)c(O)c2ccccc21	-0.0558
CCC(C)(C(=O)NC1CCCCC1)N(C)C(=O)c1ccc2c(c1)OCO2 (stereo not drawn)	-0.364
COc1ccc2[nH]c(C(=O)O)c(NS(=O)(=O)c3ccc(OC)c(OC)c3)c2c1	-0.117
C/C(=N\NC(=O)CN(c1ccccc1Br)S(C)(=O)=O)c1ccc2c(c1)OCCO2	0.505
CCCCOc1ccc2c(C)cc(=O)oc2c1OCCCC	-0.635
OC1CCCN(C(=S)Nc2ccc(SC(F)F)cc2)C1 (stereo not drawn)	-0.328
CCOc1ccc(C(=O)COc2ccc(NC(C)=O)cc2)cc1	-0.485
O=C(NCc1cccnc1)C1CCN(S(=O)(=O)c2cccnc2)CC1	-0.219
CCNS(=O)(=O)c1ccc(NC(=O)c2ccccc2OCC)cc1	-0.0887
CN(c1ccc(OCC(=O)NC2CCCC2)cc1)S(=O)(=O)c1cccs1	-0.0565
CCOc1nc(-c2ccccc2)ccc1-c1noc(-c2cccs2)n1	-0.148
c1ccc(-n2nnnc2CN2CCOCC2)cc1	0.041
Cc1ccccc1CN1CCN(CC2CC3C=CC2C3)CC1 (stereo not drawn)	-0.0221
O=C(Nc1ccccc1)OCc1cc(-c2ccc(Cl)cc2)on1	-0.494

Structure (SMILES)	z-score
COc1ccc(-c2nc(SCc3ccccc3)n(C(=O)c3ccco3)n2)cc1	-0.152
O=C(NCC(c1cccnc1)N1CCN(c2ccccc2F)CC1)c1ccco1 (stereo not drawn)	0.32
COc1ccccc1C1(CCNS(=O)(=O)c2ccc(C)cc2)CCOC(C(C)C)C1 (stereo not drawn)	-0.293
Cc1ccc(C)c(NS(=O)(=O)c2cc(C(=O)N3CCc4ccccc4C3)ccc2Cl)c1	-0.21
COc1ccc(C(=S)N2CCOCC2)cc1OS(=O)(=O)c1ccccc1[N+](=O)[O-]	-0.118
CCOc1ccc2[nH]c(=O)c(CN(Cc3ccccc3)C(=O)N3CCCC3)cc2c1	0.0044
O=C1NC(c2ccccc2)=C(c2nc3ccccc3s2)C(c2ccc(F)cc2)N1 (stereo not drawn)	-0.195
O=C(NC1CCCCC1)N1CCN(c2ccccc2)CC1	0.0334
Cc1ccc(S(=O)(=O)Cc2ccc(C(=O)NCCCN3CCN(C)CC3)o2)cc1	0.0989
CC(C)C(=O)Nc1cccc(-c2nc3ccccc3o2)c1	-0.391
CS(=O)(=O)N(Cc1nc2sc3c(c2c(=O)[nH]1)CCCC3)C1CCCCC1	1.06
CCc1cc(=O)n2[nH]c(C)c(-c3ccccc3OC)c2n1	0.4
Cc1ccc(Cn2c(SCC(C)C)nc3c2c(=O)[nH]c(=O)n3C)cc1	-0.876
Cc1nn(C)c(C)c1/C=C1/SC(=S)NC1=O	0.492
Cc1nc(/N=C(\N)NC(=O)c2ccccc2)nc2ccccc12	2.8
CC(O)CNc1nc2c(c(=O)n(C)c(=O)n2C)n1Cc1cccc(Br)c1 (stereo not drawn)	-0.338
Cc1cccc(NC(=O)/C(C#N)=C/c2cn(CC(=O)NCc3ccco3)c3ccccc23)c1	-0.187
Cc1onc(-c2ccccc2)c1C(=O)Nc1ccc(S(=O)(=O)N2CCCCC2)cc1	-0.301
CCCN(CCC)CCNC(=O)C1CCN(Cc2nc(-c3ccc(Cl)cc3)oc2C)CC1	0.348
Cc1ccc(S(=O)(=O)NCC(=O)N/N=C/c2ccc(Cl)cc2Cl)cc1	-0.272
